# Results from the supplement of paper PMC8728848.
# The other results are listed elsewhere or left out.
# B1: ACA (Amaranthus caudatus) (protein)
# chain: MAGLPVIMCLKSNNNQKYLRYQSDNIQQYGLLQFSADKILDPLAQFEVEPSKTYDGLVHIKSRYTNKYLVRWSPNHYWITASANEPDENKSNWACTLFKPLYVEEGNMKKVRLLHVQLGHYTQNYTVGGSFVSYLFAESSQIDTGSKDVFHVIDWKSIFQFPKRYVTFKGNNGKYLGVITINQLPCLQFGYDNLNDPKVAHEMFVTSNGTICIKSTYMNKFWRLSTDDWILVDGNDPRETNEAAALFRSDVHDFNVISLLNMQKTWFIKRFTSGKPGFINCMNAATQNVDETAILEIIELGSNN
# Key:
# Experiment in all cases: glycan array binding signal (z-score within array); higher = stronger binding
# Details in all cases: glycan notation: IUPAC condensed, linker removed
# [1] = target: Gal(a1-4)Gal(b1-3)GlcNAc(b1-2)Man(a1-3)[Gal(a1-4)Gal(b1-3)GlcNAc(b1-2)Man(a1-6)]Man(b1-4)GlcNAc(b1-4)GlcNAc
# In short: (§1)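 Glycan array data came from 3228 arrays in the Consortium for Functional Glycomics database, and only arrays with an available protein sequence were kept. Glycan names were put into IUPAC-condensed notation, and columns mapping to the same glycan were averaged. The binding signal is a within-array Z-score, averaged across arrays of one protein sequence run at different concentrations or buffers and across linkers. A negative Z-score can be read as non-binding.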
# Gal(a1-4)Gal(b1-4)Glc = target: Gal(a1-4)Gal(b1-4)Glc
# In short: as §1
# Gal(a1-4)Gal(b1-4)GlcNAc = target: Gal(a1-4)Gal(b1-4)GlcNAc
# In short: as §1
# [2] = target: Gal(a1-4)Gal(b1-4)GlcNAc(b1-2)Man(a1-3)[Gal(a1-4)Gal(b1-4)GlcNAc(b1-2)Man(a1-6)]Man(b1-4)GlcNAc(b1-4)GlcNAc
# In short: as §1
# [3] = target: Gal(a1-4)Gal(b1-4)GlcNAc(b1-3)Gal(b1-4)Glc
# In short: as §1
# Gal(a1-4)GlcNAc = target: Gal(a1-4)GlcNAc
# In short: as §1
# Gal(a1-6)Glc = target: Gal(a1-6)Glc
# In short: as §1
# Gal(b1-2)Gal = target: Gal(b1-2)Gal
# In short: as §1
# Gal(b1-3)Gal = target: Gal(b1-3)Gal
# In short: as §1
# Gal(b1-3)Gal(b1-4)GlcNAc = target: Gal(b1-3)Gal(b1-4)GlcNAc
# In short: as §1
# Gal(b1-3)GalNAc = target: Gal(b1-3)GalNAc
# In short: as §1
# [4] = target: Gal(b1-3)GalNAc(a1-3)[Fuc(a1-2)]Gal(b1-4)Glc
# In short: as §1
# [5] = target: Gal(b1-3)GalNAc(a1-3)[Fuc(a1-2)]Gal(b1-4)GlcNAc
# In short: as §1
# Gal(b1-3)GalNAc(b1-3)Gal = target: Gal(b1-3)GalNAc(b1-3)Gal
# In short: as §1
# [6] = target: Gal(b1-3)GalNAc(b1-3)Gal(a1-4)Gal(b1-4)Glc
# In short: as §1
# [7] = target: Gal(b1-3)GalNAc(b1-4)Gal(b1-4)Glc
# In short: as §1
# [8] = target: Gal(b1-3)GalNAc(b1-4)[Neu5Ac(a2-3)]Gal(b1-4)Glc
# In short: as §1
# Gal(b1-3)GlcNAc = target: Gal(b1-3)GlcNAc
# In short: as §1
# [9] = target: Gal(b1-3)GlcNAc(a1-3)Gal(b1-4)GlcNAc
# In short: as §1
# [10] = target: Gal(b1-3)GlcNAc(a1-6)Gal(b1-4)GlcNAc
# In short: as §1
# Gal(b1-3)GlcNAc(b1-2)Man = target: Gal(b1-3)GlcNAc(b1-2)Man
# In short: as §1
# [11] = target: Gal(b1-3)GlcNAc(b1-2)Man(a1-3)[Gal(b1-3)GlcNAc(b1-2)Man(a1-6)]Man(b1-4)GlcNAc(b1-4)GlcNAc
# In short: as §1
# [12] = target: Gal(b1-3)GlcNAc(b1-2)Man(a1-3)[Gal(b1-3)GlcNAc(b1-2)Man(a1-6)]Man(b1-4)GlcNAc(b1-4)[Fuc(a1-6)]GlcNAc
# In short: as §1
# [13] = target: Gal(b1-3)GlcNAc(b1-2)Man(a1-3)[GlcNAc(b1-4)][Gal(b1-3)GlcNAc(b1-2)Man(a1-6)]Man(b1-4)GlcNAc(b1-4)GlcNAc
# In short: as §1
# [14] = target: Gal(b1-3)GlcNAc(b1-2)[Gal(b1-3)GlcNAc(b1-6)]Man(a1-6)[Gal(b1-3)GlcNAc(b1-2)Man(a1-3)]Man(b1-4)GlcNAc(b1-4)GlcNAc
# In short: as §1
# [15] = target: Gal(b1-3)GlcNAc(b1-3)Gal(b1-3)GlcNAc
# In short: as §1
# [16] = target: Gal(b1-3)GlcNAc(b1-3)Gal(b1-4)Glc
# In short: as §1
# [17] = target: Gal(b1-3)GlcNAc(b1-3)Gal(b1-4)GlcNAc
# In short: as §1
# [18] = target: Gal(b1-3)GlcNAc(b1-3)Gal(b1-4)GlcNAc(b1-2)Man(a1-3)[Gal(b1-3)GlcNAc(b1-3)Gal(b1-4)GlcNAc(b1-2)Man(a1-6)]Man(b1-4)GlcNAc(b1-4)GlcNAc
# In short: as §1
# [19] = target: Gal(b1-3)GlcNAc(b1-3)Gal(b1-4)GlcNAc(b1-2)[Gal(b1-3)GlcNAc(b1-3)Gal(b1-4)GlcNAc(b1-6)]Man(a1-6)[Gal(b1-3)GlcNAc(b1-3)Gal(b1-4)GlcNAc(b1-2)Man(a1-3)]Man(b1-4)GlcNAc(b1-4)[Fuc(a1-6)]GlcNAc
# In short: as §1
# [20] = target: Gal(b1-3)GlcNAc(b1-3)Gal(b1-4)GlcNAc(b1-3)Gal(b1-4)GlcNAc(b1-2)[Gal(b1-3)GlcNAc(b1-3)Gal(b1-4)GlcNAc(b1-3)Gal(b1-4)GlcNAc(b1-6)]Man(a1-6)[Gal(b1-3)GlcNAc(b1-3)Gal(b1-4)GlcNAc(b1-3)Gal(b1-4)GlcNAc(b1-2)Man(a1-3)]Man(b1-4)GlcNAc(b1-4)[Fuc(a1-6)]GlcNAc
# In short: as §1
# [21] = target: Gal(b1-3)GlcNAc(b1-3)Gal(b1-4)GlcNAc(b1-6)[Gal(b1-3)GlcNAc(b1-3)]Gal(b1-4)Glc
# In short: as §1
# [22] = target: Gal(b1-3)GlcNAc(b1-3)Gal(b1-4)[Fuc(a1-3)]GlcNAc
# In short: as §1
# [23] = target: Gal(b1-3)GlcNAc(b1-3)Gal(b1-4)[Fuc(a1-3)]GlcNAc(b1-6)[Gal(b1-3)GlcNAc(b1-3)]Gal(b1-4)Glc
# In short: as §1
# [24] = target: Gal(b1-3)GlcNAc(b1-3)GalNAc
# In short: as §1
# [25] = target: Gal(b1-3)GlcNAc(b1-6)Gal(b1-4)GlcNAc
# In short: as §1
# [26] = target: Gal(b1-3)GlcNAc(b1-6)GalNAc
# In short: as §1
# [27] = target: Gal(b1-3)GlcNAc(b1-6)[Gal(b1-3)]GalNAc
# In short: as §1
binder,measurement,setting,value
B1,glycan array binding signal (z-score),[1],-0.318
same,glycan array binding signal (z-score),Gal(a1-4)Gal(b1-4)Glc,-0.012
same,glycan array binding signal (z-score),Gal(a1-4)Gal(b1-4)GlcNAc,0.134
same,glycan array binding signal (z-score),[2],-0.195
same,glycan array binding signal (z-score),[3],-0.059
same,glycan array binding signal (z-score),Gal(a1-4)GlcNAc,-0.189
same,glycan array binding signal (z-score),Gal(a1-6)Glc,0.141
same,glycan array binding signal (z-score),Gal(b1-2)Gal,-0.153
same,glycan array binding signal (z-score),Gal(b1-3)Gal,0.088
same,glycan array binding signal (z-score),Gal(b1-3)Gal(b1-4)GlcNAc,0.13
same,glycan array binding signal (z-score),Gal(b1-3)GalNAc,-0.321
same,glycan array binding signal (z-score),[4],-0.399
same,glycan array binding signal (z-score),[5],-0.18
same,glycan array binding signal (z-score),Gal(b1-3)GalNAc(b1-3)Gal,-0.191
same,glycan array binding signal (z-score),[6],-0.347
same,glycan array binding signal (z-score),[7],0.073
same,glycan array binding signal (z-score),[8],-0.454
same,glycan array binding signal (z-score),Gal(b1-3)GlcNAc,-0.151
same,glycan array binding signal (z-score),[9],-0.572
same,glycan array binding signal (z-score),[10],-0.451
same,glycan array binding signal (z-score),Gal(b1-3)GlcNAc(b1-2)Man,0.032
same,glycan array binding signal (z-score),[11],0.867
same,glycan array binding signal (z-score),[12],0.116
same,glycan array binding signal (z-score),[13],2.44
same,glycan array binding signal (z-score),[14],-0.184
same,glycan array binding signal (z-score),[15],-0.267
same,glycan array binding signal (z-score),[16],-0.586
same,glycan array binding signal (z-score),[17],-0.338
same,glycan array binding signal (z-score),[18],-0.297
same,glycan array binding signal (z-score),[19],0.911
same,glycan array binding signal (z-score),[20],0.633
same,glycan array binding signal (z-score),[21],-0.113
same,glycan array binding signal (z-score),[22],0.124
same,glycan array binding signal (z-score),[23],-0.12
same,glycan array binding signal (z-score),[24],0.052
same,glycan array binding signal (z-score),[25],-0.237
same,glycan array binding signal (z-score),[26],-0.497
same,glycan array binding signal (z-score),[27],-0.617
